Experimental data taken from paper PMC4081100.
The entries are a selection whose mix differs from that of the whole data set. For part of these data: At the low end of the ranking the order means little. The list shows a part of the results. For part of these data: The source does not settle which construct or isoform was used.

Columns and labels:
Test in all cases: universal protein binding microarray (PBM)
Settings in all cases: transcription factors of Arabidopsis thaliana; high values mean tight binding; most listed sequences are background and not binding sites; double strand, one strand shown
[1] = biological target: GST-NTL6(1-168) (UniProt Q9SCK6)
[2] = biological target: T1, GST-NST2(1-184) (UniProt Q9M274)
T1 sequence: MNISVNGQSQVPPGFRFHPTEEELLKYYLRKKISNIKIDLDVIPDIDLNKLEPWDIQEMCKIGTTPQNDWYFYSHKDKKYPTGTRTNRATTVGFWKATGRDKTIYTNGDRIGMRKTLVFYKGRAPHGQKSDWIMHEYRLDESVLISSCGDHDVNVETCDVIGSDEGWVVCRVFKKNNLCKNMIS

[3] = biological target: T2, GST-NTL8 NAC domain (UniProt Q9XIN7)
T2 sequence: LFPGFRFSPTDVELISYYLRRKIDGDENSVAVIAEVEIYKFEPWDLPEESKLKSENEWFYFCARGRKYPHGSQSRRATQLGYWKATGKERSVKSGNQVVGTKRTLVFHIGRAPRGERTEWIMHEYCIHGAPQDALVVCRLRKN

[4] = biological target: T3, GST-VND3 NAC domain (UniProt Q9FH59)
T3 sequence: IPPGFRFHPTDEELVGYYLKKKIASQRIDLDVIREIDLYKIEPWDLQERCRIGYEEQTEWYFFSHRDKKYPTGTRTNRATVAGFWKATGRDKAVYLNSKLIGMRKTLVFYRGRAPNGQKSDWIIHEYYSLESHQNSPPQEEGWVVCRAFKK

[5] = biological target: T4, GST-VOZ2 (Arabidopsis thaliana) (UniProt Q9SLB9)
T4 sequence: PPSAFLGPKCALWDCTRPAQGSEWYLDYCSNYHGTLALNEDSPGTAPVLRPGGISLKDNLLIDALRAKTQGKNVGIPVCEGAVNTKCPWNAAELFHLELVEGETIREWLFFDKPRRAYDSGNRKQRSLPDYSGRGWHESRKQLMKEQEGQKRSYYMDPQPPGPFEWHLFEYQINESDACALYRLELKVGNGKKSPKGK

[6] = biological target: GST-WRKY1(266-371) (UniProt Q9SI37)
[7] = biological target: T5, GST-ANAC019 NAC domain (UniProt Q9C932)
T5 sequence: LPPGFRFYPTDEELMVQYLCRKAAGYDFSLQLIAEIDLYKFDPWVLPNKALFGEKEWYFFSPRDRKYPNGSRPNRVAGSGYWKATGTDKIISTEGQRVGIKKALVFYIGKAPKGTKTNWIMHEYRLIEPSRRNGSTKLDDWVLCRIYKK

[8] = biological target: T6, GST-ANAC092(1-285) full length (UniProt Q9FKA0)
T6 sequence: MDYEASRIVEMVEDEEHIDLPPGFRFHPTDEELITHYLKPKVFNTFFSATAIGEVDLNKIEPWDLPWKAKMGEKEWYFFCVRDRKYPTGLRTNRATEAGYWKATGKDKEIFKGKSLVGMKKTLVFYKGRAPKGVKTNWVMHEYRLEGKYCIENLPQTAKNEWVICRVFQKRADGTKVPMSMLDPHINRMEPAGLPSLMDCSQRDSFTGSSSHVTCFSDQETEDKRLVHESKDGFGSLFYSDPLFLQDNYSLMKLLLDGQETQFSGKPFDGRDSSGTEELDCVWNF

[9] = biological target: T7, GST-NAP(1-166) (UniProt O49255)
T7 sequence: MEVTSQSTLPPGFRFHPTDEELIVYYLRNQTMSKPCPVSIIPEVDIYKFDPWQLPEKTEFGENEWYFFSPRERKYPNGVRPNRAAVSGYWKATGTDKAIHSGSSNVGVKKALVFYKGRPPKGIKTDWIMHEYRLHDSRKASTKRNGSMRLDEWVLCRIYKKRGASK

[10] = biological target: T8, GST-ATAF1 NAC domain (UniProt Q39013)
T8 sequence: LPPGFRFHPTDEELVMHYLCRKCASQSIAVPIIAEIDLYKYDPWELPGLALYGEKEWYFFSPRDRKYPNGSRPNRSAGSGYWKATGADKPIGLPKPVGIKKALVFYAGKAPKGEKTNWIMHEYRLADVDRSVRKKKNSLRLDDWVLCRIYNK

[11] = biological target: T9, GST-ANAC055(1-171) (UniProt Q9LDY8)
T9 sequence: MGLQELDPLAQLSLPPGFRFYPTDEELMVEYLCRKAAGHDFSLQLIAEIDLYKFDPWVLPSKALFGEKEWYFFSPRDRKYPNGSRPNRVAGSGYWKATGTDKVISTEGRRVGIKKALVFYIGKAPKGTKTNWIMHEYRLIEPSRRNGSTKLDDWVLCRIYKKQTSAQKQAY

Sequence	binding signal [1]	binding signal [2]	binding signal [3]	binding signal [4]	binding signal [5]	binding signal [6]	binding signal [7]	binding signal [8]	binding signal [9]	binding signal [10]	binding signal [11]
ACGCTTCC	0.0789 E-score	0.206 E-score	0.0233 E-score	0.0151 E-score	0.0528 E-score	-0.165 E-score					
ATGCCGTA	-0.0495 E-score		0.0526 E-score	0.412 E-score	-0.0205 E-score	0.0492 E-score	0.395 E-score	0.41 E-score	0.36 E-score		
GTACGTTA			-0.127 E-score	0.253 E-score	0.14 E-score	-0.119 E-score					
GTAAGTAA		0.239 E-score	0.195 E-score	0.279 E-score	0.156 E-score	0.122 E-score			0.0288 E-score	0.245 E-score	
AACACGCC		0.144 E-score	0.00662 E-score	0.1 E-score	0.0299 E-score	0.0102 E-score					
CACGTTAC	0.0274 E-score		0.0995 E-score	0.319 E-score	0.0205 E-score	-0.0786 E-score					
ACGCAAAC	0.0288 E-score	0.357 E-score		0.378 E-score	0.164 E-score	-0.145 E-score	0.391 E-score			0.258 E-score	
CTTGCGTC	-0.0486 E-score		0.0218 E-score	0.0748 E-score	0.0382 E-score	0.0999 E-score				0.0507 E-score	
TAGCGTAA			0.0186 E-score	0.297 E-score	0.317 E-score	-0.0948 E-score				0.281 E-score	
GCAAGAAA	0.306 E-score		0.229 E-score	0.12 E-score	0.0298 E-score	0.0436 E-score	-0.0659 E-score		-0.0125 E-score		
AAGTAATC			0.328 E-score	0.188 E-score	-0.0442 E-score	-0.0652 E-score	0.144 E-score		-0.0122 E-score		
GAAGGAAA		0.214 E-score	0.485 E-score	-0.0803 E-score	-0.00646 E-score	-0.137 E-score	0.118 E-score		0 E-score	0.096 E-score	0.184 E-score
CTACACGC	-0.0778 E-score		0.00388 E-score	0.147 E-score	0.0782 E-score	-0.114 E-score					0.0947 E-score
ACGCTATC	-0.0795 E-score		-0.0999 E-score	-0.00462 E-score	0.177 E-score	-0.0124 E-score		0.454 E-score			0.0307 E-score
GTGAAGAA				0.304 E-score	0.162 E-score	0.0465 E-score					0.215 E-score
CGTTTCCC	0.14 E-score		0.422 E-score	0.179 E-score	0.0741 E-score	-0.056 E-score				0.108 E-score	
ACGCCATC	0.025 E-score		0.0371 E-score	0.125 E-score	0.0261 E-score	-0.0865 E-score	0.0335 E-score		0.171 E-score		
